Reference: PMC4336329 (PLoS ONE, 2015)
Screen size: about 310,000 compounds; about 2,200 (0.71%) showed an effect of 50% or more. Effects have a minus sign here. This is one part of the list.

Each compound was assayed against human ether-à-go-go-related gene (hERG) potassium channel (human, UniProt Q12809) (assay: primary screen, population patch clamp on CHO cells stably expressing hERG).
Sequence of human ether-à-go-go-related gene (hERG) potassium channel (Q12809 whole entry, looked up): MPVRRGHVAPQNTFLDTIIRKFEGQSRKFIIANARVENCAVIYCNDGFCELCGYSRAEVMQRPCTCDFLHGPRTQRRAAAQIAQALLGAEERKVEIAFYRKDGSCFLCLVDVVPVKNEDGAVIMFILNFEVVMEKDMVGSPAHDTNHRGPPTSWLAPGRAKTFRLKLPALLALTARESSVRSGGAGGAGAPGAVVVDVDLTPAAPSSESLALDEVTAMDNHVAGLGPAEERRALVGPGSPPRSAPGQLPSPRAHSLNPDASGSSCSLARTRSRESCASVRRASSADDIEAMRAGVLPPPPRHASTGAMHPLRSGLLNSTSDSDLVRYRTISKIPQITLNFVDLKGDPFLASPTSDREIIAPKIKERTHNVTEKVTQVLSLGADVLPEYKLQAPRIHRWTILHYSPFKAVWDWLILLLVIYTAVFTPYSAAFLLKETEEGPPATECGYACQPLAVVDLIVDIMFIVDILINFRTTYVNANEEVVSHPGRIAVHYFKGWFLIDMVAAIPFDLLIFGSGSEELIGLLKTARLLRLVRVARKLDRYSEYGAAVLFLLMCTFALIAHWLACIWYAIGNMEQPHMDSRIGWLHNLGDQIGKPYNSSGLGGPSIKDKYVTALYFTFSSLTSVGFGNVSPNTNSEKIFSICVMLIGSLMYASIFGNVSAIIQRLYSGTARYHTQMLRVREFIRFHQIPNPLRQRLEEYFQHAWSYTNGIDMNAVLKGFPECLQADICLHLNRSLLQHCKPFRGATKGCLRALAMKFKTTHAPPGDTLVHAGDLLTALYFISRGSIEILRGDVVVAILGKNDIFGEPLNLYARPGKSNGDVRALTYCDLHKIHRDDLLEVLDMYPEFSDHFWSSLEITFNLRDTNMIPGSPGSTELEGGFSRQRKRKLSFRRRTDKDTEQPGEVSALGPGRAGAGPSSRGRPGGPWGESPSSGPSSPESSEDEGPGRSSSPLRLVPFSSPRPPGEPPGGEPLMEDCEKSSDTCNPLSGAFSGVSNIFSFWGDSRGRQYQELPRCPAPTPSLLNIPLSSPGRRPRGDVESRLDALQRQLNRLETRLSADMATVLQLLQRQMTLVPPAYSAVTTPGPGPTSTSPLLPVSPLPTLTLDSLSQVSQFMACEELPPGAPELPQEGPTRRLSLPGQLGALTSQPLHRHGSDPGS

Row | Structure (SMILES) | hERG current change (%, negative = inhibition) at 1uM
1 | c1ccc2c(c1)nc1sccn12 | -2.42%
2 | CCc1ccccc1NC(=O)N1C2CCCC1CC(NC(C)=O)C2 (centres unmarked) | 21%
3 | O=C1c2ccccc2C(=O)c2cc(S(=O)(=O)Nc3ccccc3)ccc21 | 6.97%
4 | COc1ccc2cc(CCNC(=O)CCc3ccccc3)c(=O)[nH]c2c1 | 18.7%
5 | O=C(NCc1ccc(Cl)cc1)C1CCCN1C(=O)Nc1ccccc1 (centres unmarked) | -3.8%
6 | Cc1ccc(C(=O)CNc2ccccc2)cc1 | 12.3%
7 | O=C(c1ccc(=O)oc1)N1CCN(C(c2ccccc2)c2ccccc2)CC1 | 3.15%
8 | CCC(C)NC(=O)COC(=O)c1cc([N+](=O)[O-])ccc1Sc1nc(C)cs1 (centres unmarked) | 8.13%
9 | Cc1ccc(S(=O)(=O)N2CCC(NC(=O)c3cccc(C)c3)CC2)cc1 | 9.02%
10 | c1ccc(-c2cn3c(n2)-c2ccccc2C3)cc1 | 6.93%
11 | CN(CC(=O)Nc1cccc(F)c1)C(=O)CN1C(=O)NC2(CCCC2)C1=O | 4.92%
12 | CC(C)(C)c1ccc(/C=N/NC(=O)Cc2c[nH]c3ccccc23)cc1 | 6.53%
13 | CN(C)C(CNS(=O)(=O)c1ccc(Cl)cc1)c1cccnc1 (centres unmarked) | 15.7%
14 | COc1ccccc1CC(=O)NC12CC3CC(CC(C3)C1)C2 | 15.9%
15 | O=C1/C(=C\c2ccc(O)cc2)SC(=S)N1/N=C/c1ccc(O)cc1 | 8.88%
16 | O=C(Cn1cnc2c(nnn2Cc2ccccc2F)c1=O)OCc1ccccc1 | -8.47%
17 | CCCOc1ccc(/C=N/NC(=O)c2c(-c3ccccc3)noc2C)cc1OC | 2.63%
18 | COC(=O)NNC(=O)c1ccc(C)cc1 | -17.7%
19 | CCCCCCCCN1[C@@H](CC(=O)OCC)c2ccc(C(F)(F)F)cc2S1(=O)=O | 6.09%

Row | Structure (SMILES) | hERG current change (%, negative = inhibition) at 1uM
20 | O=S(=O)(c1ccc(Cl)cc1)n1cnc2ccccc21 | 12.4%
21 | COc1cc2nc(N(C)CCCNC(=O)C3CCCO3)nc(N)c2cc1OC (centres unmarked) | -0.911%
22 | Cc1ccc(S(=O)(=O)CC(=O)Nc2ccc(Cl)cn2)cc1 | 1.04%
23 | COc1ccccc1NC(=O)CSc1ccc(-c2ccco2)nn1 | 4.52%
24 | CSc1nc2ccc(NC(=O)c3c(-c4ccccc4)noc3C)cc2s1 | 15.3%
25 | Cc1ccc(OCC(=O)N2CC(C)OC(C)C2)c([N+](=O)[O-])n1 (centres unmarked) | -5.22%
26 | Cc1ccccc1NC(=O)COC(=O)c1ccc(CSc2ccc(Cl)cc2)cc1 | 6.75%
27 | NC(=O)NC(=O)COC(=O)CC12CC3CC(CC(C3)C1)C2 | -3.06%
28 | CCOP(=O)(OCC)C(NC(=O)Nc1ccc(Cl)cc1)c1ccccc1 (centres unmarked) | 12.5%
29 | Cc1ccc(NC(=O)C2C3C=CC4(O3)C2C(=O)N(CCCN2CCOCC2)C4C(=O)NC2CCCCC2)cc1Cl (centres unmarked) | 13.6%
30 | COC(=O)[C@@H]1[C@@H](C)N(Cc2ccccc2)C(=O)N[C@H]1c1ccccc1 | 12.5%
31 | CCCSc1nc(C)c(-c2csc(C(C#N)=C3CCCC3)n2)cc1C#N | -3.25%
32 | CC(C)(C)OC(=O)N[C@H](C(=O)OC(C)(C)C)c1ccc(C(F)(F)F)cc1 | 12.8%
33 | CCOC(=O)C1=C(N)Oc2cc(O)ccc2C1c1ccc(Br)cc1 (centres unmarked) | 3.57%
34 | COc1ccc(S(=O)(=O)N2CC(O)CC2C(=O)OCC(=O)Nc2ccc(Cl)cn2)cc1 (centres unmarked) | -3.89%
35 | CCCNC(=O)N1CCN(S(=O)(=O)c2ccc3c(c2)OCCO3)CC1 | 4.2%
36 | COc1ccc(S(=O)(=O)N2CCNCC2)cc1OC | 10.5%
37 | S=c1[nH]nc(-c2cccs2)n1/N=C/c1cn(-c2ccccc2)nc1-c1ccc(Cl)cc1 | 6.42%
38 | CN(CC(=O)Nc1cc(Cl)ccc1C#N)C1CCS(=O)(=O)C1 (centres unmarked) | 7.82%

Row | Structure (SMILES) | hERG current change (%, negative = inhibition) at 1uM
39 | CCOC(=O)[C@H]1[C@H]2COc3ccc(Cl)cc3[C@@H]2N2C(=O)c3cc(F)ccc3NC(=O)[C@@]12C | 13.9%
40 | COc1cccc(C(=O)NCCCNC(=O)c2ccco2)c1 | 10.6%
41 | COc1ccccc1N1CCN(C(=O)C(=O)c2cn(CC(=O)N3CCCCCC3)c3ccccc23)CC1 | 1.05%
42 | CCOC(=O)c1cc(S(=O)(=O)Nc2ccc(OC)cc2OC)cn1C | 14.7%
43 | Cc1csc(=O)n1CCC(=O)OCC(=O)NCc1ccc(F)cc1 | 11.5%
44 | Cc1cc(Cl)ccc1OCC(=O)NCCC(=O)O | 16.1%
45 | COc1ccc(C(O)P(=O)(OCCC(C)C)c2ccc(N(C)C)cc2)cc1OC (centres unmarked) | 11.6%
46 | COc1ccc(NC(=O)NCc2ccc(Cl)cc2)cc1 | 11.1%
47 | O=C(CCCO)CCCCCCCCC[C@H]1N[C@H](CO)[C@@H](O)[C@@H]1O | 19.5%
48 | Cc1cccc(C)c1NC(=O)CSc1nc(COc2ccccc2)nc2ccccc12 | 10.9%
49 | Cc1cc(N2C(=O)C(=O)/C(=C(/O)c3ccc(Cl)cc3)C2c2cccc(Br)c2)no1 (centres unmarked) | 2.11%
50 | COc1ccc(N(C(=O)CNC(=O)c2cccs2)C(C(=O)NCC2CCCO2)c2ccc(OC)c(OC)c2)cc1 (centres unmarked) | 14%
51 | COCCCNC(=S)Nc1cccc(S(=O)(=O)NC2=NCCC2)c1 | 8.68%
52 | Nc1ccc(S(=O)(=O)NC2(C(F)(F)F)NC(=O)N(Cc3ccccc3)C2=O)cc1 (centres unmarked) | 10.2%
53 | CCCC(=O)OCC(=O)Nc1cc([N+](=O)[O-])ccc1OC | 10.8%
54 | COC(=O)c1cc(C(=O)OC)cc(-n2c(C)cc(C(=O)CC#N)c2C)c1 | 8.63%
55 | COc1ccccc1-n1cnnc1SCC(=O)c1ccc[nH]1 | 11%
56 | CCOC(=O)C1CCN(C(=S)NC(=O)c2cccs2)CC1 | 17.3%
